“And” between values parts separate entries of the source, which are not always exact repeats. Equal values may be shown once.
Assays:
Hs578T = experiment: Cytotoxicity in vitro (CellTiter-Glo viability), Hs578T; format: cell-based, human; details: Hs578T (TNBC), 72 hours
ROR1 on Jeko-1 cells = target: T1, ROR1 on Jeko-1 cells (Homo sapiens, UniProt Q01973); experiment: Binding to ROR1-positive Jeko-1 cells (flow cytometry receptor binding assay); details: 20 minutes on ice, PE secondary antibody
T1 construct: The Jeko-1 cell line, from mantle cell lymphoma, is a suspension cell line; host or cells: Jeko-1 (human mantle cell lymphoma)
T1 sequence (Q01973 30-937): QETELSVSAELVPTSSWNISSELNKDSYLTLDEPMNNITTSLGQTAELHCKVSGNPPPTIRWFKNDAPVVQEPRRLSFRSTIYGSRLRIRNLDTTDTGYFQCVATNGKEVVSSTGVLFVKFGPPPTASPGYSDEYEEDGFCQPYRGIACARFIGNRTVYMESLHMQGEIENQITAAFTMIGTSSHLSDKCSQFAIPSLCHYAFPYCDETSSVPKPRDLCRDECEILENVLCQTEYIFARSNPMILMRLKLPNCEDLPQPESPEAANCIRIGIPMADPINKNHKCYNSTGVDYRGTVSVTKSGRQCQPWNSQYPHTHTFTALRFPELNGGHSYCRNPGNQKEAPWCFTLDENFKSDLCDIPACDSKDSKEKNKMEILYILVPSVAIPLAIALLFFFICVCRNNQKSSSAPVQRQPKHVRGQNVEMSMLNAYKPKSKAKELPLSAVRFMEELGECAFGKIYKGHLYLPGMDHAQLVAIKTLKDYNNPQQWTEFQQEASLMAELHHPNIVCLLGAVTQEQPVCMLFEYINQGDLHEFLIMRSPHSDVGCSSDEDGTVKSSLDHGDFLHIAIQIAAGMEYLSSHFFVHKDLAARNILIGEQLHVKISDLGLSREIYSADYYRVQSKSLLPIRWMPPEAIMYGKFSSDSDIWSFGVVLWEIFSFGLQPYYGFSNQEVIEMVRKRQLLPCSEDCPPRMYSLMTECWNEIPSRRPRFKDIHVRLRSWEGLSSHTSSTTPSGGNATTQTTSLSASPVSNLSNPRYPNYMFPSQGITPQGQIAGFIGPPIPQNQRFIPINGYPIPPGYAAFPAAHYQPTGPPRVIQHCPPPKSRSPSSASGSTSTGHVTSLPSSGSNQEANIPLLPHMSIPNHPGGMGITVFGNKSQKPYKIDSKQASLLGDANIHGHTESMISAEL
Protocol: The binding to tumor cells by antibodies Ab1 and 4A5, as well as ADC constructs derived from those antibodies (ADC-A and ADC-T), was evaluated. First, the binding of Ab1 to two ROR1-positive human tumor cell lines representing different cancer types was tested. The Jeko-1 cell line, from mantle cell lymphoma, is a suspension cell line, while the MDA-MB-231 cell line, from triple negative breast cancer, is an adherent cell line. The cell lines have different levels of ROR1 expression, with Jeko-1 cells displaying about 13507 cell surface copies and the MDA-MB-231 cells displaying about 21015 cell surface copies. The Jeko-1 (ATCC Cat. No. CRL-3006) and MDA-MB-231 (ATCC Cat. No. […]) cell lines were purchased from the American Type Culture Collection and were maintained according to the ATCC recommendations.
Jeko-1 cells (FIG. 2A) or MDA-MB-231 cells (FIG. 2B) were incubated with 0, 1, 10, 100, or 1000 ng/mL of Ab1 for 20 minutes on ice. After washing off unbound antibody, the cells were incubated with secondary anti-human IgG antibody labeled with phycoerythrin (PE) for an additional 20 minutes. The amount of PE fluorescence was measured using the BDFACS Verse analyzer and FlowJo V10 software. The PE signal for the highest concentration was used as the maximal binding signal to calculate the % maximal binding. EC50 was calculated using GraphPad Prism 7. […]

OCI-Ly18 = experiment: Cytotoxicity in vitro (CellTiter-Glo viability), OCI-Ly18; format: cell-based, human; details: OCI-Ly18 (DLBCL), 72 hours
BR5015 = experiment: Human TNBC PDX model BR5015 (low ROR1 expression); format: in vivo, mouse; details: for mean TGI: 17 days
Excerpt: Two PDX models displaying different levels of ROR1 expression were selected for this study. ROR1 expression was based on the level of ROR1 staining via IHC of a tissue microarray representing triplicate cores of TNBC PDX models. The mean level of ROR1 expression as assessed by % ROR1-positive cells were 58% and 38% for human TNBC cells BR5011 and BR5015, respectively.
NOD/SCID nude mice were subcutaneously injected with BR5011 or BR5015 cells in the mammary fat pad. When palpable tumors were observed (mean tumor volume approximately 150 mm^3 for BR5011 and approximately 250 mm^3 for BR5015), animals were randomized into three groups. The groups for the BR5011 PDX model were vehicle control, 1 mg/kg ADC-A IV q4d, and 5 mg/kg ADC-A IV q4d. The groups for the BR5015 PDX model were vehicle control, 1 mg/kg ADC-A IV qw, and 5 mg/kg ADC-A IV qw. Mean TGI was calculated as described above.

OvCar4 = experiment: Cytotoxicity in vitro (CellTiter-Glo viability), OvCar4; format: cell-based, human; details: OvCar4 (Ovarian), 72 hours
OCI-Ly19 = experiment: Cytotoxicity in vitro (CellTiter-Glo viability), OCI-Ly19; format: cell-based, human; details: OCI-Ly19 (DLBCL), 72 hours
ROR1×TCL1 leukemia cells = experiment: TCL1×ROR1 CLL mouse model; format: in vivo; details: 1, 2, and 5 mg/kg IV weekly, four doses
Protocol: This study evaluated the activity of ADC-A as compared to vehicle and unconjugated Ab1 in the TCL1×ROR1 CLL mouse model. In the study, ROR1×TCL1 leukemia cells were engrafted into mice via tail vein injection, and the injected mice were randomized into five groups, 8 mice/group. The groups were vehicle control, 10 mg/kg Ab1, and 1, 2, and 5 mg/kg ADC-A. The mice were dosed IV weekly for a total of four doses.

NCI-H929 = experiment: Cytotoxicity in vitro (CellTiter-Glo viability), NCI-H929; format: cell-based, human; details: NCI-H929 (MM), 72 hours

B1: ADC-A: Ab1 conjugated via MAL (mc)-VC-PAB linker to MMAE (conjugate)
heavy: QVQLQESGPGLVKPSQTLSLTCTVSGYAFTAYNIHWVRQAPGQGLEWMGSFDPYDGGSSYNQKFKDRLTISKDTSKNQVVLTMTNMDPVDTATYYCARGWYYFDYWGHGTLVTVSS[skipping human IgG1 constant region]
light: DIVMTQTPLSLPVTPGEPASISCRASKSISKYLAWYQQKPGQAPRLLIYSGSTLQSGIPPRFSGSGYGTDFTLTINNIESEDAAYYFCQQHDESPYTFGEGTKVEIKRTVAAPSVFIFPPSDEQLKSGTASVVCLLNNFYPREAKVQWKVDNALQSGNSQESVTEQDSKDSTYSLSSTLTLSKADYEKHKVYACEVTHQGLSSPVTKSFNRGEC
- EC50 (Hs578T): 22.9 nM
- EC50 of binding to cells (ROR1 on Jeko-1 cells): 0.017 µg/mL and 0.02157 µg/mL and 0.0221 µg/mL
- EC50 (OCI-Ly18): 95 nM
- mean TGI (BR5015; 1 mg/kg): 22% at 1 mg/kg;
- mean TGI (BR5015; 5 mg/kg): 75.6% at 5 mg/kg.
- tumor response (BR5015; 1 or 5 mg/kg ADC-A): Tumor regression was observed
- EC50 (OvCar4): 283 nM
- EC50 (OCI-Ly19): 199 nM
- leukemic cell tumor burden (ROR1×TCL1 leukemia cells): dose-dependent inhibition of leukemic cell tumor burden
- EC50 (NCI-H929): 179 nM

Reference: patent USRE50631E1, “ROR1 antibody immunoconjugates” (VelosBio Inc., priority 2017, dated 2025)
